Reference: PMC4336329 (PLoS ONE, 2015)
In all, about 310,000 compounds went through this assay and about 2,200 (0.71%) showed an effect of 50% or more. Effects have a minus sign here. Some of the results follow.

Target: human ether-à-go-go-related gene (hERG) potassium channel (human, UniProt Q12809)
Assay: primary screen, population patch clamp on CHO cells stably expressing hERG

human ether-à-go-go-related gene (hERG) potassium channel, sequence (Q12809 whole entry, looked up): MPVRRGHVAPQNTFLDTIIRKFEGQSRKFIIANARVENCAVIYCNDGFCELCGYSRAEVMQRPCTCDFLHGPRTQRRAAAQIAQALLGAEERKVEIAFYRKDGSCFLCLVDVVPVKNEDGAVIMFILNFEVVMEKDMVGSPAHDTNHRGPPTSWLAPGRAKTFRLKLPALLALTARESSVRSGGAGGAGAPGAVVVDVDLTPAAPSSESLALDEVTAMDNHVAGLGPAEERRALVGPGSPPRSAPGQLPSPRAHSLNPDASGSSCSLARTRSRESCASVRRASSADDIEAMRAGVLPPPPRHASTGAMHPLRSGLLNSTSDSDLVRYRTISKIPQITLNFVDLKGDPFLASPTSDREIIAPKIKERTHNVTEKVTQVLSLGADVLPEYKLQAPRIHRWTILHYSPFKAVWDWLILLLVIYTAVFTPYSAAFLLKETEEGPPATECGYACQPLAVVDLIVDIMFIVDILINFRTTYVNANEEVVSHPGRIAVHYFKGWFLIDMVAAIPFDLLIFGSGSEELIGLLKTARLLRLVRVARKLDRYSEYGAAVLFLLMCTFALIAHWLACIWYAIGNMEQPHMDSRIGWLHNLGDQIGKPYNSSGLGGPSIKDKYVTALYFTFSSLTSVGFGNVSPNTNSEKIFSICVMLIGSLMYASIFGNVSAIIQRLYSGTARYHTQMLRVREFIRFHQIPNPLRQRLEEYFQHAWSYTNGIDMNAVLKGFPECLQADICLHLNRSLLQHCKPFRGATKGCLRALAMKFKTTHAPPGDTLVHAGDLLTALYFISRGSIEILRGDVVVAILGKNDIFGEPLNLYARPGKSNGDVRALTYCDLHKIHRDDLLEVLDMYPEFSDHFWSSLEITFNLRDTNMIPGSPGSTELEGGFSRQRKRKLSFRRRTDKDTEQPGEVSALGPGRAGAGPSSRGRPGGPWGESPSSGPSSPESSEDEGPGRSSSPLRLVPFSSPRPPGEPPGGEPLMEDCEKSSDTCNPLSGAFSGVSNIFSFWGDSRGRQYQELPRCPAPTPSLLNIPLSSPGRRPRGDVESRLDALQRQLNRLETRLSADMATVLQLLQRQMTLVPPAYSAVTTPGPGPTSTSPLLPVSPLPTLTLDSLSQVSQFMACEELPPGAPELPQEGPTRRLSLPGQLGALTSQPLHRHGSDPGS

Structure (SMILES)	hERG current change (%, negative = inhibition) at 1uM
CCOc1ccc(-c2cc(CCCC(=O)NCCc3ccc(OC)c(OC)c3OC)no2)cc1	9.86%
O=C(COC(=O)c1cc(-c2ccco2)nc2ccccc12)NCc1ccc2c(c1)OCO2	12.8%
COCCN(C(=O)COC(=O)/C(=C/c1ccccc1)NC(C)=O)c1c(N)n(Cc2ccccc2)c(=O)[nH]c1=O	8.77%
CCc1ccccc1NS(=O)(=O)c1ccc2[nH]cc(C(=O)NC3CCCC3)c(=O)c2c1	-2.41%
Cn1nc(-c2ccc(Cl)cc2)cc1NC(=O)CCCC(=O)O	11.5%
O=C(NCc1ccc2c(c1)OCO2)C1CC(c2ccccc2O)=NO1 (centres unmarked)	9.44%
Cc1ccc(OCC(=O)Nc2nnc(-c3ccco3)s2)cc1	7.55%
COc1ccc(NC(=O)c2[nH]c(C)c(C(C)=O)c2C)cc1	17.3%
CCCN(C(=O)CSCc1c(C)noc1C)c1c(N)n(Cc2ccccc2)c(=O)[nH]c1=O	20.8%
COc1cccc(/C=C2/SC(=S)N(CC(=O)NNC(=O)c3ccccc3OC)C2=O)c1	1.85%
COC(=O)N/N=C/c1ccccc1	11%
Cc1ccc(-c2nnn(CC(=O)Nc3ccc4nn(-c5ccccc5)nc4c3)n2)o1	6.12%
O=C(Cn1nnc(-c2cccs2)n1)NNC(=O)c1ccccc1Cl	5.68%
CCN1CCN(CCC(=O)Nc2ccc(C)cc2)CC1.Cl	1.39%
CNC(=O)CN(c1cc(C)ccc1OC)S(=O)(=O)c1ccc(C)cc1	-2.61%
CN(C)/C=C/C(=O)c1ccc(Br)cc1	12%
Cc1ccc(Cn2ccc(=O)c(Cc3c(Cl)cccc3Cl)c2C)cc1	-1.17%
COc1ccc(NC(=S)NCCc2ccc(Cl)cc2)c(OC)c1	12.9%
O=C(O)CCN1C(=O)C(=C2CCCCCC2)SC1=S	5.86%
CCOc1ccccc1Nc1nnc(SCc2ccc(C(=O)OC)o2)s1	-8.76%
O=C1CCCC2(O)C1C(c1cccc(Br)c1)NC(=O)N2Cc1ccccc1 (centres unmarked)	8.78%
O=C(O)/C=C/c1ccc(OCCCF)cc1	15%

Structure (SMILES)	hERG current change (%, negative = inhibition) at 1uM
O=C(Nc1ccc(F)cc1)c1cc2c(s1)CCCC2	13.3%
O=C(CCC(=O)N/N=C/c1c[nH]c2ccccc12)NCc1ccccc1	10.8%
O=C(Cn1cc([N+](=O)[O-])ccc1=O)NCC1COc2ccccc2O1 (centres unmarked)	-0.498%
COc1cccc(C2c3[nH]c4ccccc4c3C[C@H]3C(=O)N(C4CCN(Cc5ccccc5)CC4)CC(=O)N23)c1 (some centres unmarked)	-8.67%
Cc1ccc(C(=O)NCC(=O)OCC(=O)c2ccc(Br)s2)cc1	14.5%
O=C(Nc1ccccc1Cl)c1ccc(S(=O)(=O)N2CCOCC2)cc1	8.25%
O=C(N1CCOCC1)N1CCCC(c2nc(-c3cccs3)no2)C1 (centres unmarked)	1%
Cc1ccc(-n2nnc3c(SCC(=O)NCC4CCCO4)ncnc32)cc1 (centres unmarked)	-4.26%
O=C(O)c1ccc(CSCc2ccco2)cc1	9.84%
CCOc1cccc2cc(C(=O)Nc3cc(C)on3)c(=O)oc12	0.238%
COc1cc(C(=O)O/N=C2\C=CC(=O)C(C)=C2)cc(OC)c1OC	14.6%
CC(C#N)Sc1ncnc2sc3c(c12)CCC3 (centres unmarked)	9.99%
CC1CCN(C(=O)COC(=O)[C@H](C)NS(=O)(=O)/C=C/c2ccccc2)CC1	1.96%
CN1c2ccccc2C(C)(C)C12CC(CCl)=NO2 (centres unmarked)	11.1%
Cc1cc(C)c2c(N)c(C(=O)c3ccccc3)sc2n1	9.17%
Cc1cc(C(F)(F)F)nn1CC(=O)Nc1ccc2c(c1)OCO2	8.52%
COc1ccc(CCn2nnnc2C(c2ccc(C)cc2)N2CCN(C)CC2)cc1OC.Cl (centres unmarked)	-0.689%
Cc1cc(C)cc(N2CC34C=CC(O3)C(C(=O)OCC(=O)NCc3ccco3)C4C2=O)c1 (centres unmarked)	-5.92%
COc1ccc(CNC(=O)c2cc(-c3cc(C)cc(C)c3O)n[nH]2)cc1	12%
O=C(CCN(NC(=O)c1ccccc1)C1=NS(=O)(=O)c2ccccc21)NC1CCCCC1	12.6%
CS(=O)(=O)N(CC(=O)Nc1ccc2c(c1)OCO2)Cc1ccccc1	11.2%
CC(=O)Nc1ccc(NS(=O)(=O)c2cccc3ccccc23)cc1	2.91%

Structure (SMILES)	hERG current change (%, negative = inhibition) at 1uM
O=C(/C=C/c1ccccc1)NC(=S)Nc1cccnc1	10.8%
COc1ccc(-n2c(CNc3ccc(C)cc3)nnc2SCc2ccccc2)cc1	7.59%
COc1ccc(CNC(=O)CN(Cc2ccccc2)C(=O)CCC(=O)Nc2ccccn2)cc1	-25.1%
O=[N+]([O-])c1nn(-c2ccc(Cl)cc2)n(O)c1=NCc1ccncc1	-6.54%
O=c1ccc(-c2ccccc2)nn1Cc1ccccc1F	9.68%
Cc1cc(C)c(-n2nnnc2SCC(=O)c2cc3ccccc3o2)c(C)c1	8.76%
CC(=O)c1c(C)[nH]c(C(=O)Nc2cccc(S(=O)(=O)N(C)C)c2)c1C	11.8%
CN1Cc2c(N3CCOCC3)nc3sc(C(=O)c4ccc(Br)cc4)c(N)c3c2CC1(C)C	11.1%
CCCCn1c(SC(C)C(=O)c2ccc(OC)cc2)nc2cc(S(N)(=O)=O)ccc21 (centres unmarked)	3%
CCC(C)[C@H](NC(=O)[C@H](Cc1ccccc1)n1c(=O)[nH]c2ccccc2c1=O)C(=O)N1CCC(C(=O)O)CC1 (some centres unmarked)	-9.94%
O=C(N1CCN(c2ccccc2)CC1)C1(c2cccs2)CCOCC1	13%
Cc1ccc(Sc2ccc(NC(=O)CCl)cc2)c(C)c1	11.3%
O=C(COc1c(Br)cc(Br)c2cccnc12)N1CCc2ccccc2C1	6.11%
O=C(N/N=C/c1ccccn1)C(O)c1ccccc1 (centres unmarked)	6.88%
COc1ccc(C(=O)COc2nc(C)cc(C)c2C#N)cc1	-2.15%
Cc1scc(C(=O)N/N=C/c2ccco2)c1C	11.1%
O=C(NNS(=O)(=O)c1ccccc1)c1ccc(S(=O)(=O)N2CCCCC2)cc1	-4.63%
Cc1ccccc1-n1ncc2c(SCC(=O)NCc3cccs3)ncnc21	13.9%
CCN(CC)S(=O)(=O)c1ccc(C(=O)/C=C/c2ccc(-c3ccc([N+](=O)[O-])cc3)o2)cc1	-4.04%
COc1ccc(NS(=O)(=O)c2cccc(Cl)c2Cl)cc1S(=O)(=O)N1CCCCC1	-6.3%
Cc1cccc(C)c1NC(=O)CNC(=O)CN1C(=O)NC2(CCc3ccccc32)C1=O (centres unmarked)	4.07%
Oc1c(Br)cc(/C=N/Nc2nncc3ccccc23)cc1Br	16.1%

Structure (SMILES)	hERG current change (%, negative = inhibition) at 1uM
COc1ccc(CSc2nc(C)cc(=O)[nH]2)cc1	5.27%
COc1ccc(Cl)cc1NC(=O)Nc1ccc(C(=O)N2CCCC2)cc1	-1.05%
CCOC(=O)c1c(CN2CCOCC2)n(C)c2cc(Br)c(O)c(CN(C)C)c12.Cl	-2.58%
CCn1c(=O)c2cc(C(=O)NCCN3CCOCC3)sc2c2ccccc21	14%
O=C(O)c1cccc(S(=O)(=O)N2CCN(Cc3ccc4c(c3)OCO4)CC2)c1	15.6%
Cc1ccc2nc(-c3ccccc3)cc(C(=O)N(C)CC(=O)Nc3ccccc3Br)c2c1	4.78%
O=C(COC(=O)CCc1c[nH]c(=O)[nH]1)Nc1cccc(Cl)c1	-4.07%
Cc1cc(NC(=O)CSc2nnc(-c3c[nH]c4ccccc34)n2-c2ccc(Cl)cc2)no1	9.73%
CC1Cc2ccccc2N1C(=O)CSc1nnc2c(n1)[nH]c1ccccc12 (centres unmarked)	6.77%
Cc1ccc2c(c1)[C@@H]1CN(C)CC[C@@H]1N2S(=O)(=O)c1ccc(F)cc1.Cl	-3.75%
C=Cn1ccnc1P(=S)(c1c(C)nn(-c2ccccc2)c1C)c1nccn1C=C	4.06%
CN(CC(=O)Nc1ccccc1Cl)C(=O)COC(=O)c1cc([N+](=O)[O-])ccc1N1CCOCC1	-2.37%
COc1ccc(N2CCN(c3ccc(NC(=O)C4CCCCC4)cc3C#N)CC2)cc1	19.7%
CCn1c(SCC(=O)c2ccc(C)cc2)nnc1-c1ccncc1	14.1%
Nc1c(C(=O)CSc2nccn2-c2cccc(F)c2)c(=O)[nH]c(=O)n1C1CC1	14.2%
O=C(COC(=O)CNC(=O)c1ccccc1)NC1CCCCC1	0.397%
CCCOc1cccc(C(=O)N2CCN(C(=O)C3CCCO3)CC2)c1 (centres unmarked)	12.2%
Cc1ccc(NC(=O)c2ccc(S(=O)(=O)NCc3ccco3)cc2)cc1	8.89%
CCC1CCCCN1C(=O)CCn1ccnc1 (centres unmarked)	22.9%
O=C(O)C(Cc1ccccc1)N1C(=O)/C(=C/c2cccc3ccccc23)SC1=S (centres unmarked)	7.97%
